# Source: the supplement of paper PMC4604168 (melanoma cell lines)
# The list shows a part of the results. Repeats are few or missing, and single values can be far off.
# How the values were obtained:
# Assay in all cases: cell count relative to DMSO control; melanoma cells; higher = more viable cells
# Details in all cases: library dose: standard library concentration; 72 h
# A101D = system: A101D
# A2058 = system: A2058
# A375 = system: A375
# 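Further: cells treated in 1,536-well plates, then fixed and DAPI-stained, with nuclei counted from automated high-throughput microscope images.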
SMILES,cell count (A101D),cell count (A2058),cell count (A375)
"Cc1cc(Nc2cc(N3CCN(C)CC3)nc(/C=C/c3ccccc3)n2)n[nH]1 + COc1ccc(Cl)c(Nc2nc3ccccc3nc2NS(=O)(=O)c2cccc(NC(=O)C(C)(C)N)c2)c1 [XL147] (first compound 0.2 µM, partner dose 4 µM)",83.3%,66.3%,70.2%
"Cc1cc(Nc2cc(N3CCN(C)CC3)nc(/C=C/c3ccccc3)n2)n[nH]1 + Nc1ncn([C@H]2C[C@H](O)[C@@H](CO)O2)c(=O)n1 [decitabine] (first compound 0.2 µM, partner dose 0.5 µM)",72.4%,60.4%,97.4%
"COc1ccc(C2=N[C@@H](c3ccc(Cl)cc3)[C@@H](c3ccc(Cl)cc3)N2C(=O)N2CCNC(=O)C2)c(OC(C)C)c1 [Nutlin-3] + CO[C@H]1C[C@@H]2CC[C@@H](C)[C@@](O)(O2)C(=O)C(=O)N2CCCC[C@H]2C(=O)O[C@H]([C@H](C)C[C@@H]2CC[C@@H](OCCO)[C@H](OC)C2)CC(=O)[C@H](C)/C=C(\C)[C@@H](O)[C@@H](OC)C(=O)[C@H](C)C[C@H](C)/C=C/C=C/C=C/1C [everolimus] (first compound 0.5 µM, partner dose 0.1 µM)",63.3%,58.3%,91.3%
"Cc1cc(Nc2cc(N3CCN(C)CC3)nc(/C=C/c3ccccc3)n2)n[nH]1 + Cc1ccc(NC(=O)c2cccc(N(C)C)c2)cc1NC(=O)c1ccc(O)cc1 [ZM336372] (first compound 0.2 µM, partner dose 10 µM)",61.8%,83.8%,97.7%
"Cn1c(=O)n(-c2ccc(C(C)(C)C#N)cc2)c2c3cc(-c4cnc5ccccc5c4)ccc3ncc21 + Cn1nnc2c(C(N)=O)ncn2c1=O [temozolomide] (first compound 0.02 µM, partner dose 10 µM)",68.5%,37.5%,75%
"COc1ccc(C2=N[C@@H](c3ccc(Cl)cc3)[C@@H](c3ccc(Cl)cc3)N2C(=O)N2CCNC(=O)C2)c(OC(C)C)c1 [Nutlin-3] + CN1CCN(c2ccc3nc(-c4c(N)c5c(F)cccc5[nH]c4=O)[nH]c3c2)CC1 [Dovitinib] (first compound 0.5 µM, partner dose 0.5 µM)",56.1%,45.4%,74.9%
"Cc1cc(Nc2cc(N3CCN(C)CC3)nc(/C=C/c3ccccc3)n2)n[nH]1 + Nc1ccn([C@@H]2O[C@H](CO)[C@@H](O)C2(F)F)c(=O)n1 [gemcitabine] (first compound 0.2 µM, partner dose 0.002 µM)",98.3%,81.9%,82.4%
"Cn1c(=O)n(-c2ccc(C(C)(C)C#N)cc2)c2c3cc(-c4cnc5ccccc5c4)ccc3ncc21 + CS(=O)(=O)CCNCc1ccc(-c2ccc3ncnc(Nc4ccc(OCc5cccc(F)c5)c(Cl)c4)c3c2)o1 [lapatinib] (first compound 0.02 µM, partner dose 4 µM)",57.9%,49.2%,156%
"Cc1cn(-c2cc(NC(=O)c3ccc(C)c(Nc4nccc(-c5cccnc5)n4)c3)cc(C(F)(F)F)c2)cn1 [nilotinib] + C[C@@H]1CCN(C(=O)CC#N)C[C@@H]1N(C)c1ncnc2[nH]ccc12 [CP690550] (first compound 1 µM, partner dose 5 µM)",85.9%,98%,128%
"Cc1cc(Nc2cc(N3CCN(C)CC3)nc(/C=C/c3ccccc3)n2)n[nH]1 + Nc1cccc2c1CN(C1CCC(=O)NC1=O)C2=O [lenalidomide] (first compound 0.2 µM, partner dose 5 µM)",74.6%,98.9%,95%
"Cc1cn(-c2cc(NC(=O)c3ccc(C)c(Nc4nccc(-c5cccnc5)n4)c3)cc(C(F)(F)F)c2)cn1 [nilotinib] + NC(=O)Nc1cc(-c2cccc(F)c2)sc1C(=O)N[C@H]1CCCNC1 [AZD7762] (first compound 1 µM, partner dose 0.1 µM)",47.8%,73.8%,78.2%
"CC(C)C[C@H](NC(=O)[C@H](Cc1ccccc1)NC(=O)c1cnccn1)B(O)O [Bortezomib] + C[C@@H]1CCN(C(=O)CC#N)C[C@@H]1N(C)c1ncnc2[nH]ccc12 [CP690550] (first compound 0.005 µM, partner dose 5 µM)",23.3%,16.6%,91.7%
